Data as given in PubChem BioAssay AID624296 (National Center for Advancing Translational Sciences (NCATS), 2012).
The whole screen tested about 350,000 compounds, of which about 9,900 (2.8%) were called active. Inconclusive means that the source gave no clear call. Such entries were picked first, then a sample of the others. Calls follow the shape of the dose curve; as a rule, active = well fitted activation curve with a large enough effect; inconclusive = small, poorly fitted or top-dose-only effect; inactive = no such curve, though single readings can be large or run the other way. Potencies of inconclusive entries are left out as doubtful fits.

experiment: A quantitative high throughput screen for small molecules that induce DNA re-replication in MCF 10a normal breast cells.; also: nearly all actives have a fitted effect of over 50% in size; as to activity, positive = re-replication: % of control where 0% means no effect; settings: MCF 10A DNA re-replication, Hoechst nuclear intensity, 48 h; activity, positive = re-replication: at 46.1 µM (top of the series)
Potency is read from the fitted curve at half-maximal effect; tags tell the direction and shape of the fitted curve.

Structure (SMILES) | Potency | activity, positive = re-replication
COc1ccc(-c2csc(NC(C)c3nc4cc(Cl)c(Cl)cc4n3CCCO)n2)cc1 (stereo not drawn) | inconclusive [activator, partial curve, poor fit] | –
COC(=O)C(NC(=O)c1ccccc1Cl)(Nc1ncc(S(=O)(=O)c2ccc([N+](=O)[O-])cc2)s1)C(F)(F)F (stereo not drawn) | inconclusive [activator, single point] | –
CCCc1cc(=O)oc2c(CNc3ccc(OCC)cc3)c(O)ccc12 | inconclusive [activator, single point] | –
O=C(CN1CCN(S(=O)(=O)c2cccc(F)c2)CC1)Nc1ccnn1C1CCCC1 | – | inactive: 27.4%
O=C(OCCCOC(=O)c1cc[n+]([O-])cc1)c1cc[n+]([O-])cc1 | inconclusive [activator, single point] | –
CCOC(=O)C1=C(C)N(C)C(=O)NC1c1cccc([N+](=O)[O-])c1 (stereo not drawn) | inconclusive [activator, full curve, poor fit] | –
CN(C)c1ccc(/C=N/NC(=S)NCc2ccccc2)cc1 | inconclusive [activator, single point] | –
CC1CCC(NC(=O)c2ccc(CS(=O)(=O)Cc3ccccc3F)o2)CC1 (stereo not drawn) | inconclusive [activator, single point] | –
Cc1ccc(NC(=O)c2cc3cc(OC(F)(F)F)ccc3[nH]2)cc1 | – | inactive: 0.425%
O=C(c1ccccc1)C(Nc1cccc([N+](=O)[O-])c1)c1ccccc1 (stereo not drawn) | inconclusive [activator, full curve, poor fit] | –
COCCN1CCN(C(=O)C2CCC(=O)N(CCc3ccc(Cl)cc3)C2)CC1 (stereo not drawn) | – | inactive: -2.44%
CCOC(=O)Cn1cc(/C=C(/C#N)C(=O)NC(C)C)c2ccccc21 | – | inactive: -2.69%
Cc1cc(C)n(CC(O)COc2ccc(Cl)cc2)n1 (stereo not drawn) | inconclusive [activator, single point] | –
Cc1onc(C(=O)Nc2cccc(C(F)(F)F)c2)c1[N+](=O)[O-] | inconclusive [activator, single point] | –
CCOC(=O)c1cn(C2CC2)c2c(F)c(NCCCN(C)C)c(F)cc2c1=O | inconclusive [activator, single point] | –
O=C(Nc1ccccc1N1CCOCC1)c1cccc(NS(=O)(=O)c2ccc(F)c(F)c2)c1 | – | inactive: 15.7%
CCOc1ccc(OCCn2nnc3ccccc3c2=O)cc1 | – | inactive: 3.31%
CSc1nc(-c2ccc(Cl)cc2)nn1C(=O)c1ccco1 | – | inactive: 0.784%
COCCn1c(C)cc(/C=C2/SC(=O)N(CC(=O)N3CCCC3)C2=O)c1C | – | inactive: -2.25%
COc1cccc(-c2nc(OC(C)C)c3ccccc3n2)c1 | inconclusive [activator, single point] | –
COCCn1ccc2c(OCC(=O)Nc3cc(OC)ccc3OC)cccc2c1=O | inconclusive [activator, full curve, poor fit] | –
COC(=O)c1cc(OC)c(OC)cc1NC(=S)Nc1cc(Cl)ccc1OC | – | inactive: -1.27%
Cc1ccc2nc(-c3ccc(NC(=O)CN4C(=O)c5ccccc5C4=O)cc3)sc2c1 | active: 16.4 µM | –

Structure (SMILES) | Potency | activity, positive = re-replication
COc1ccc(CC(=O)OCC(=O)NCc2ccco2)cc1OC | – | inactive: -0.291%
COc1ccccc1CNC(=O)C1CCN(S(=O)(=O)N2CCCCC2)CC1 | inconclusive [activator, single point] | –
O=Cc1c(N2CCN(c3cccc(Cl)c3)CC2)nc2ccccn2c1=O | – | inactive: 11.1%
C=CCN1C(=O)NC(c2ccc(OC)cc2)(C(F)(F)F)S/C1=C(\C#N)c1nnc(N2CCOCC2)n1-c1ccccc1 (stereo not drawn) | inconclusive [activator, single point] | –
CN(CC(=O)NCc1ccc(F)cc1)Cc1ccc(Br)cc1 | – | inactive: 16.1%
O=C(CCc1ccccc1)NNC(=S)NCCc1ccccc1 | inconclusive [activator, single point] | –
S=C(NCCCc1ccccc1)Nc1ccccc1Cl | inconclusive [activator, single point] | –
COC(=O)c1c(-c2ccc(N(C)C)cc2)sc2ccc(OC)cc12 | inconclusive [activator, partial curve, poor fit] | –
CCC(=O)N1CCc2cc(Br)cc(S(=O)(=O)NCCCN(CC)Cc3ccccc3)c21 | inconclusive [activator, single point] | –
O=C1CC2(CCCCC2)Oc2ccc(Cl)cc21 | inconclusive [activator, partial curve, poor fit] | –
COc1ccc(-c2cc([C@H]3[C@@H]4C=CCC[C@@]4(C)C(=O)N3Cc3ccccc3)ccc2F)cc1OC | inconclusive [activator, single point] | –
Nc1nc(SCC(=O)c2ccc(Cl)cc2)c2ncn(C3OC(CO)C(O)C3O)c2n1 (stereo not drawn) | inconclusive [activator, single point] | –
O=C(c1cccs1)N1CCN(C(=O)c2cn(-c3ccccc3)nc2-c2ccccc2)CC1 | inconclusive [activator, single point] | –
CCN(CC(=O)Nc1ccc(NC(C)=O)cc1)C(=O)Cc1ccc(Cl)c(Cl)c1 | inconclusive [activator, full curve, poor fit] | –
Cc1cc(C(=O)Nc2ccccc2Cc2ccccc2)no1 | – | inactive: 5.33%
CC(C)N(Cc1c(O)ccc2c(=O)c(-c3ccc(Cl)cc3)coc12)C(C)C | inconclusive [activator, single point] | –
CN(C)C1(CNC(=O)c2cccc(S(=O)(=O)Nc3ccc(Br)cc3)c2)CCCCC1 | – | inactive: -0.24%
Cn1nc([N+](=O)[O-])c(C(C#N)c2ccccn2)c(Cl)c1=O (stereo not drawn) | inconclusive [activator, full curve] | –
CCCc1nn2c(=O)cc(CSCC(=O)Nc3nnc(C(C)C)s3)nc2s1 | – | inactive: -35.3%
Cc1ccc(/C=N/NC(=O)Cc2c[nH]c3ccccc23)c(C)c1 | inconclusive [activator, single point] | –
Cc1cc(C)cc(S(=O)(=O)c2cnc3ccccc3n2)c1 | inconclusive [activator, single point] | –
CCN(CC(=O)Nc1c(C(=O)OC)[nH]c2ccccc12)c1ccc2c(c1)OCO2 | inconclusive [activator, partial curve, poor fit] | –
COC(=O)c1cc2ccccc2c(-c2c(OC)c(C(=O)OC)cc3ccccc23)c1OC | inconclusive [activator, single point] | –

Structure (SMILES) | Potency | activity, positive = re-replication
CC(=O)NC(Cc1cccc(F)c1)C(=O)NC1CCN(C(=O)Nc2ccc(C)cc2)CC1 (stereo not drawn) | inconclusive [activator, single point] | –
C=CCn1c(NCc2cc(Cl)ccc2O)nc2ccccc21 | inconclusive [activator, single point] | –
COc1ccccc1N(C)S(=O)(=O)c1ccc(C)c(C(=O)NC(C)c2ccccn2)c1 (stereo not drawn) | – | inactive: 14.2%
O=C(Cc1ccc(NC2=NC3CS(=O)(=O)CC3S2)cc1)NCc1ccccc1Cl (stereo not drawn) | – | inactive: 2.12%
C=CCn1c(SCC(=O)Nc2ccc3c(c2)OCO3)nc2ccccc2c1=O | inconclusive [activator, single point] | –
O=C(c1ccc(F)cc1)N1CCC2(CC1)NCCc1[nH]cnc12 | – | inactive: -6.79%
Cc1ccccc1C(=O)Oc1ccc2ccc(O)cc2c1 | inconclusive [activator, single point] | –
Cc1ccc(N(Cc2ccccc2)C(=O)c2cc(S(=O)(=O)N3CCOCC3)ccc2Cl)cc1 | inconclusive [activator, partial curve, poor fit] | –
Cn1c(COc2ccccc2)nnc1SCc1nc2ccccc2[nH]1 | inconclusive [activator, single point] | –
Cn1cccc1/C=C1\SC(=O)N(c2ccc(O)cc2)C1=O | inconclusive [activator, partial curve, poor fit] | –
CCOc1ccc(S(=O)(=O)N2CCCCC2)cc1NC(=O)CN1C(=O)NC(C)(c2ccc(C)cc2)C1=O (stereo not drawn) | inconclusive [activator, partial curve, poor fit] | –
Cc1ccc(CCN2CC(C(=O)O)CC2=O)cc1 (stereo not drawn) | inconclusive [activator, partial curve, poor fit] | –
CCOC(=O)c1c(CCl)nc2ccccc2c1-c1ccccc1 | inconclusive [activator, single point] | –
COc1ccc(/C=C/C(=O)Oc2ccc(/C=N/NC(=O)c3ccccc3)cc2)cc1OC | inconclusive [activator, partial curve, poor fit] | –
COc1ccc(-c2oc(NC(=O)CSc3nncn3C)c(C#N)c2-c2ccc(OC)cc2)cc1 | active: 13 µM | –
CCOC(=O)/C(=C\c1ccc(OC(F)F)cc1)C1=Nn2c(nnc2-c2ccc(Cl)cc2)SC1 | active: 5.17 µM | –
O=c1c(-c2ccccc2)nnc2sc(COc3ccc(Br)cc3)nn12 | – | inactive: 2.29%
COc1cc(OC)cc(C(=O)Nc2ccc(N3CCOCC3)cc2N2CCOCC2)c1 | – | inactive: -1.25%
COc1ccc(CC(=O)c2ccc(OC3OC(CO)C(O)C(O)C3O)cc2O)cc1 (stereo not drawn) | – | inactive: 0.935%
CC(C)Oc1ccc(CNS(=O)(=O)c2csc(C(N)=O)c2)cc1 | inconclusive [activator, partial curve, poor fit] | –
O=C1Nc2ccccc2/C1=C/c1ccnc2ccccc12 | inconclusive [activator, single point] | –
COc1cc(CNc2ccc3[nH]c(=O)[nH]c3c2)ccc1OCc1ccc(C)cc1 | – | inactive: 7.13%
